# Data published in the supplement of paper PMC8728848.
# This is one part of the list.
# B1: HML-Native (Hypnea musciformis), P84871 (protein)
# chain: QKFCTLDIAPVCCQIVIGGGMYTAGNACMCEGFVSGVGRCENPKECPCTREAQIPSCCSSRWGLVSVTGKCACDCLGGTVAFPEPCPSPY
# How the values were obtained:
# Assay in all cases: glycan array binding signal (z-score within array); higher = stronger binding
# Conditions in all cases: glycan notation: IUPAC condensed, linker removed
# [1] = target: Neu5Gc(a2-8)Neu5Gc(a2-3)Gal(b1-4)GlcNAc(b1-3)Gal(b1-4)GlcNAc
# How it was run: (§1)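 Columns mapping to the same glycan were averaged after glycan names were converted to IUPAC-condensed notation. The data come from 3228 arrays in the Consortium for Functional Glycomics database, limited to those with an available protein sequence. Binding is reported as a within-array Z-score averaged across arrays of one protein sequence and across linkers.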
# [2] = target: Neu5Gc(a2-8)Neu5Gc(a2-6)Gal(b1-4)GlcNAc
# How it was run: as §1
# [3] = target: Neu5Gc(b2-6)Gal(b1-4)GlcNAc
# How it was run: as §1
binder,measurement,setting,value
B1,glycan array binding signal (z-score),[1],-0.171
same,glycan array binding signal (z-score),[2],-0.275
same,glycan array binding signal (z-score),[3],-0.289
